Some of the results follow.
T1: UNK ZnF1-3 (human, UniProt Q9C0B0 31-174)
T1 sequence: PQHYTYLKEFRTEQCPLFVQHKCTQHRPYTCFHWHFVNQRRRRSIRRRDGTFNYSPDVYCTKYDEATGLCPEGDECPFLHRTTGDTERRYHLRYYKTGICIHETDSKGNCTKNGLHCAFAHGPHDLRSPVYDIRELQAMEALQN

B1: chr4:87735950:87735951:+_ENSG00000163629_ENST00000511467|hu_mus|motif|central (ssRNA)
RNA: GGGAGUUCUACAGUCCGACGAUCUAGACUCAGUGUGUCUUUGUAACAACGUCCACUAUGAUCAAAUGCUGUCUCCAGCCCGGAGACCUGCUGGUUCAGUUAGUGAAAAAGGAGUUUUAAUGACCAUCAGUGGUUGAAGUGGCUCAACAGAGGAUUGAGCAUCA
B2: chr10:73857132:73857133:-_ENSG00000138303_ENST00000317168|hu_mus|FALSE|FALSE (ssRNA)
RNA: GGGAGUUCUACAGUCCGACGAUCUGCUGCUCUCCCGCGUCAGGAGAAGUCAACAUGUCCGCAGGAGGCAUAGUUUCCAAAGCUGUCCACCGUGAACCUCUGGGAGAUGUGAAUAGAAUUGAGCCUCAGGGAACCAAAGUAGAACAACAGAGGAUUGAGCAUCA
B3: chr3:149686290:149686291:-_ENSG00000070087_ENST00000452853|perfect_dup|motif|central (ssRNA)
RNA: GGGAGUUCUACAGUCCGACGAUCUCCAAGAGUCAAACCGUUGGUAAAGAAACCUUCCCGGUCUUUUCCUACAAUCAUAUCGGUUUCGGCUGGCGUGAUGCUCUGGAAGACGCCCCCGGCCGUGGCUGCCCAGACGUAUUUGGCCAACAGAGGAUUGAGCAUCA
B4: chr9:64573397:64573398:-_ENSMUSG00000004771_ENSMUST00000172444|mus_mus|FALSE|FALSE (ssRNA)
RNA: GGGAGUUCUACAGUCCGACGAUCUUGUAGAAUCUAGAGCAGAUGUCUCAAUGAAUGACAAACCAUUCUUCUCUGUAAAAAGAAACAAAAUUUUCAGUCUGGUAAAUUUUGAUUGCUGUUUAAUAGUGUUGGUGAUUGGUGAUCCAACAGAGGAUUGAGCAUCA
B5: 49752772_49760201_1578_3pUTR_ENSG00000102531_ENST00000398316|human|control|control (ssRNA)
RNA: GGGAGUUCUACAGUCCGACGAUCUUUCACUGAAGGCUUUACAGGUAUGCCUGGUUUAUCAGGGCAAGUAGUAAAUUCUACUACUUCACUUGGAUUACUUUUACCUUCUGAGUUGUAAGCAAUAACCUUAAAUUUAUACUUAGUCAACAGAGGAUUGAGCAUCA
B6: chr6:41756983:41756984:+_ENSG00000214736_ENST00000398881|hu_hu|FALSE|FALSE (ssRNA)
RNA: GGGAGUUCUACAGUCCGACGAUCGUCAAUGUCACUCAAGUUCCUGGCCAGCCAAACUCCCGCAGCAAAGAGUCCCAAAUUUAGUAUCAAGUUCCUCCGGAAGUCAUUCCUAUCAGUGGCAAAGCGGUAGACGCCCCGAAGCCACAACAGAGGAUUGAGCAUCA
B7: 42222520_42222640_2667_3pUTR_ENSMUSG00000037287_ENSMUST00000125995|mouse|control|control (ssRNA)
RNA: GGGAGUUCUACAGUCCGACGAUCAAACCAUCCAGAUUAACAAAGAAUGGAAGGCCAAAGAAAAAGAUUUCAGAAUAGGAGAGUAGGUGAGGGGCUGUGUCAAAGGUCAAGUGCUUUAUACACACACACCCCUGCAAAAAACACCAACAGAGGAUUGAGCAUCA
B8: chr3:131220538:131220539:-_ENSG00000114686_ENST00000264995|hu_mus|motif|central (ssRNA)
RNA: GGGAGUUCUACAGUCCGACGAUCUUCUUCAGAAAGAUGUUCAUCCCACCAAGUACUACUCUUGCUGUGGAGAUUUCGGACAAAGAACAAGAUAUUCUUUCUUCUCUCUAAGCCGGGGUCAGCACCUAGGCCUCUGGCGCCACACAACAGAGGAUUGAGCAUCA
B9: chr7:30977587:30977588:-_ENSMUSG00000001794_ENSMUST00000108196|mus_hu|FALSE|FALSE (ssRNA)
RNA: GGGAGUUCUACAGUCCGACGAUCCAGCUGGGCAAAGAGUCUCCGGAACUGCCGGACCUCCUCACUCUCGUUGGCCUCAAUGUUGGAGUAAUGUGUGCGUGGGGGCGGGGGCUCCGGGUUGUACUGCGCAGCCGCCUCGCUGAUCAACAGAGGAUUGAGCAUCA
B10: chr16:75674161:75674162:-_ENSG00000065427_ENST00000302445|hu_mus|motif|central (ssRNA)
RNA: GGGAGUUCUACAGUCCGACGAUCGCGGCCUGCCACUUUGAGGGUGACAUCAGUCAGGUGGUCCCCAGGCUGCAGGUGACGGUAUUCUUGGAUGAACUGAGUGAGUGAGAUGUCCACGUGGAACUUGUGUGGGUACGGAUCCUCCAACAGAGGAUUGAGCAUCA
B11: chr2:29016751:29016752:+_ENSG00000213639_ENST00000296122|perfect_dup|motif|central (ssRNA)
RNA: GGGAGUUCUACAGUCCGACGAUCUUUAGCAAAAAAUUCAUAUCCAUCUUCCACCACCUGAUGAGCUCGACAAAUCAAAUCGGAAUCAUGACGAUUCAGAAAUUUACUGACUACAUCAGCUCCAAAAGUAAAGGAAACACCACGCAACAGAGGAUUGAGCAUCA
B12: chr14:22664367:22664368:+_ENSMUSG00000021771_ENSMUST00000022293|mus_hu|motif|central (ssRNA)
RNA: GGGAGUUCUACAGUCCGACGAUCAGAGAGUGUAAGCUUCACACCAGGCCUCAGAGUCUGAGUAUAGCCUACUCCAAUUAAGCGGGAGUUGUUGACUUUUGCAGAAAUGGAAGCAGUGGGAUCCAACUGAUAUUUAGCUGCAAUCAACAGAGGAUUGAGCAUCA
B13: chr2:91460361:91460362:+_ENSMUSG00000040549_ENSMUST00000099716|mus_mus|FALSE|FALSE (ssRNA)
RNA: GGGAGUUCUACAGUCCGACGAUCUGUGUACAAUGGCCUGCAGCGGCCGCUUCACACUACAGGGCUUCUAGAUCAGUAACUAAAGCUGCAGAGUGCCGAGGGUGGGCAGCUUCAUUUGCGACUGCUCUUUAUUCUCUCCAGUCUCAACAGAGGAUUGAGCAUCA
B14: chr8:103876086:103876087:-_ENSG00000155096_ENST00000347770|hu_hu|FALSE|FALSE (ssRNA)
RNA: GGGAGUUCUACAGUCCGACGAUCCGCCGUGAGAUAACGGCCCAAAGAGUCGGGUAAAGCGUCUUCUCUUUUUCGGCGGAAUUUUUAAAGAGGGAUGUGGUUACCUUGAGCAGAAAUACCCAAGGCGGCCUGGGCCAUAGGCUGCAACAGAGGAUUGAGCAUCA

These binders were tested against T1, UNK ZnF1-3 (assay: nsRBNS (natural sequence RNA bind-n-seq); RBNS binding buffer (assumed for nsRBNS): 25 mM Tris pH 7.5, 150 mM KCl, 3 mM MgCl2, 0.01% Triton X-100, 500 ug/ml BSA, 20 U/ml SUPERase-In, 4 C; UNK is unkempt and MSI1 is Musashi-1; names of the RNAs are library labels; protein concentration not given here; high values mean tight binding).
Binder B1 has a binding signal of 0.592 enrichment R.
B2 was tested, and the binding signal was 1.73 enrichment R.
In the case of B3, the binding signal is reported as 0.88 enrichment R.
With B4 the binding signal was 0.821 enrichment R.
Work on B5 yielded a binding signal of 0.768 enrichment R.
In the case of B6, the binding signal is reported as 1.63 enrichment R.
For B7, the binding signal was 1.49 enrichment R.
B8 gave a binding signal of 0.785 enrichment R.
With B9 the binding signal was 0.638 enrichment R.
Work on B10 yielded a binding signal of 1.13 enrichment R.
With B11 the binding signal was 1.36 enrichment R.
B12 showed a binding signal of 1.06 enrichment R.
Work on B13 yielded a binding signal of 0.644 enrichment R.
B14 showed a binding signal of 0.955 enrichment R.

— article PMC12136788
